Source: ChEMBL document CHEMBL1268867, “ATPases as drug targets: insights from heat shock proteins 70 and 90” (J Med Chem, 2010)

Tested on: Nc1ncnc2c1ncn2[C@@H]1O[C@H](COP(=O)(O)OP(=O)(O)OP(=O)(O)O)[C@@H](O)[C@H]1O
Test: Binding affinity to EGFR

Epidermal growth factor receptor (Homo sapiens) (letters omitted)
Km: 17 µM
